{
  "source": "PubChem BioAssay AID493014",
  "about": "(National Center for Advancing Translational Sciences (NCATS), 2011)",
  "note": "The campaign covered roughly 340,000 compounds. About 170 (0.05%) were called active. About 26% were inconclusive and are not listed. Calls follow the shape of the dose curve; as a rule, active = well fitted inhibition curve with a large enough effect in the signal ratio, with a control signal flat (not every such curve was filed as active); inconclusive = small, poorly fitted or top-dose-only effect, or effect the other way, or a change in a side signal; inactive = flat fitted curve, though single readings scatter; the % refers to the signal ratio. Only a part is listed here, and it is no random draw. Potency is read from the fitted curve at half-maximal effect.",
  "data": [
    {"assay": "qHTS Assay to Find Inhibitors of Chronic Active B-Cell Receptor Signaling;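 as to activity change, negative = inhibition: plate controls were basal doxycycline-induced cells for no effect and cells given 10 µM MG132 for full effect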", "conditions": "ABC-DLBCL IkBa-CBG/CBR reporter, luminescence ratio (green luciferase fused to IkBa over red control in TMD8 lymphoma cells), 4 h; series mostly up to 46.1 µM; activity change, negative = inhibition: at the top concentration", "in_short": "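Concentration-response series (up to 46 uM) were applied to TMD8 dual-reporter cells for 4 h at 37C with doxycycline. Green/red ratio, after filter-overlap correction, defined %Activity; red signal alone was normalised to basal cells and zero luminescence.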", "values": [
      {"smiles": "COc1ccc(/C=N/NC(=O)CCn2cnc(-c3ccccc3)c2-c2ccccc2)cc1", "Potency": "active: 23.1 µM"},
      {"smiles": "COc1ccc(N2C(=O)CS/C2=N\\C(=S)Nc2ccccc2)cc1", "Potency": "active: 10 µM"},
      {"smiles": "Cc1ccn2c(c1)nc(=O)c1cc(S(=O)(=O)N3CCCCC3)ccc12", "activity change, negative = inhibition": "inactive: 15.8%"},
      {"smiles": "NC(=O)C1CCN(c2nc(-c3ccc(F)cc3)cs2)CC1", "activity change, negative = inhibition": "inactive: 25.6%"},
      {"smiles": "CC(=O)c1cc2c(cc1N/C(=N/S(=O)(=O)c1ccccc1)c1ccc(Cl)cc1)OCO2", "activity change, negative = inhibition": "inactive: 15.5%"},
      {"smiles": "CCOC(=O)c1c(CN2CCCCC2)oc2ccc(OC)cc12", "activity change, negative = inhibition": "inactive: -0.0808%"},
      {"smiles": "O=C(NC(Cc1ccccc1)C(=O)O)/C(=C/c1ccc(Br)cc1)NC(=O)c1ccc(Br)o1", "note": "(configuration not stated)", "activity change, negative = inhibition": "inactive: 8.53%"},
      {"smiles": "Cc1nc2c(o1)CCc1ccccc1C2N1CCN(C)CC1", "note": "(configuration not stated)", "activity change, negative = inhibition": "inactive: 3.57%"},
      {"smiles": "CCO[C@H]1OC(C(N)=O)=C[C@@H](c2coc3ccccc3c2=O)[C@@H]1CCCO", "activity change, negative = inhibition": "inactive: -0.351%"},
      {"smiles": "COc1cc(/C=C2\\SC(=Nc3ccc(O)cc3)NC2=O)cc(OC)c1O", "activity change, negative = inhibition": "inactive: -11.4%"},
      {"smiles": "CCOc1cc(/C=C2\\C(=O)ON=C2C)ccc1OCc1ccccc1", "activity change, negative = inhibition": "inactive: 5.1%"},
      {"smiles": "COC(C[C@@H]1O[C@H]1[C@@H](O)[C@@H](C)OCc1ccccc1)OC", "activity change, negative = inhibition": "inactive: -1.74%"},
      {"smiles": "CC(C)(C)[C@@H]1COC(=O)[C@H](Cc2ccc(F)cc2)C/C=C\\C[C@H](CC(=O)N(CCO)Cc2ccccc2)C(=O)N1", "activity change, negative = inhibition": "inactive: -2.39%"},
      {"smiles": "CN1C(=O)S/C(=C/c2ccccc2OCc2ccc(C(=O)O)cc2)C1=O", "activity change, negative = inhibition": "inactive: 16.7%"},
      {"smiles": "COc1ccc(-c2csc(N3CCC(C(N)=O)CC3)n2)cc1", "activity change, negative = inhibition": "inactive: -15.1%"},
      {"smiles": "CCOC(=O)[C@@H]1[C@H]2COc3ccccc3[C@@H]2N2C(=O)N(c3ccc(Cl)cc3)C(=O)[C@]12C", "activity change, negative = inhibition": "inactive: 2.47%"},
      {"smiles": "N#C/C(=C/c1ccco1)c1nc2ccccc2s1", "activity change, negative = inhibition": "inactive: -5.08%"},
      {"smiles": "O=C(CCN1C(=O)/C(=C/c2ccccc2)SC1=S)NCCCN1CCOCC1", "activity change, negative = inhibition": "inactive: 15.8%"},
      {"smiles": "CCN1C(=NCC2CC2)N[C@@H](c2cccc(C(F)(F)F)c2)C(C(=O)OC)=C1C", "activity change, negative = inhibition": "inactive: 8.27%"},
      {"smiles": "C[C@@H](NC(=O)c1nc[nH]c1C(=O)N[C@H](C)c1ccccc1)c1ccccc1", "activity change, negative = inhibition": "inactive: 5.07%"},
      {"smiles": "COC(C[C@@H]1O[C@H]1[C@H](O)COCc1ccccc1)OC", "activity change, negative = inhibition": "inactive: 7.95%"},
      {"smiles": "COc1ccc(-c2cc(=O)c3c(O)cc(OC4OC(COC5OC(C)C(O)C(O)C5O)C(O)C(O)C4O)cc3o2)cc1O", "note": "(configuration not stated)", "activity change, negative = inhibition": "inactive: 19.5%"},
      {"smiles": "COC(C[C@H]1O[C@H]1[C@@H](O)COCc1ccccc1)OC", "activity change, negative = inhibition": "inactive: -2.07%"},
      {"smiles": "CN1CCC(=C2c3ccccc3CC(=O)c3sccc32)CC1", "activity change, negative = inhibition": "inactive: -1.88%"},
      {"smiles": "Cc1ccccc1CN1C(=O)c2ccccc2Sc2ccc(C(=O)NCCCN3CCOCC3)cc21", "activity change, negative = inhibition": "inactive: 7.88%"},
      {"smiles": "N#C/C(=N\\O)c1nc(-c2ccccc2)cs1", "activity change, negative = inhibition": "inactive: -0.858%"},
      {"smiles": "O=c1cc(-c2ccc(O)c(O)c2)oc2cc(O)c(C3OC(CO)C(O)C(O)C3O)c(O)c12", "note": "(configuration not stated)", "activity change, negative = inhibition": "inactive: 8.97%"},
      {"smiles": "O=C(C[C@@H]1C/C=C\\C[C@H](NC(=O)OCC2c3ccccc3-c3ccccc32)C(=O)OC[C@@H]2CCCN2C1=O)N[C@H](CO)Cc1ccccc1", "activity change, negative = inhibition": "inactive: 0.816%"},
      {"smiles": "CC(=O)Nc1ccc(Oc2cc(C#N)c(C#N)cc2N2CCOCC2)cc1", "Potency": "active: 20.6 µM"},
      {"smiles": "Cc1ccc(/C=C/C(=O)c2nc3ccccc3[nH]2)cc1", "Potency": "active: 12.6 µM"},
      {"smiles": "Cc1ccc(-c2cc(C(=O)O)c3cc(Br)ccc3n2)s1", "activity change, negative = inhibition": "inactive: -0.33%"},
      {"smiles": "COc1ccc(NC(=O)/C(C#N)=C\\C=C\\c2ccco2)cc1", "activity change, negative = inhibition": "inactive: -16.2%"}
    ]}
  ]
}
